The RNAGym collection of RNA variant scans (doi:10.7554/elife.90254)
Read counts are not given, so values of variants with three or more changes are uncertain.

B1: LINE1-mini (parent)
chain: GGCAGAGCUCAACACAGCGUGGCAAAGUGGCUGUGGCUAGACUGCC

Variants of: B1
Experiment: self-cleavage, relative activity (ratio to wild type); higher = more cleavage; in vitro, sequencing; the parent is a self-cleaving ribozyme

Variant | self-cleavage
G17A G33C C37G | 0.02
G17C G35C A39U | 0
A16U G30U G33A C37U | 0.13
G17A C18U G29U U43C | 0.01
A16U G27A U28G G36C G40U | 0.07
G17A G22A G33A | 0.02
A16U G22A U32C G35A U38A | 0
G17C G27U U34C C37U A39G | 0.03
A16U G29U U43A | 0.07
A16U U28C A41U | 0.04
G17C U34C C42A | 0.04
G17C U34G G40C | 0.02
G17A G35C A39G | 0.03
G17C G30U U38G | 0.08
G17C G22A G36U C46U | 0.01
G17A C18A A26G G35U G36C | 0
G17A G19A C42U | 0.13
G17A G33U C45U | 0.03
G17A G22A A24C U32G U38A | 0.1
G17C G19A U34A C45U | 0.02
G17A U34G G36A C37U | 0.03

Variant | self-cleavage
G17A G30A G33C C42G | 0.04
G17A G21A C46U | 0.08
G17C G30A C31U G35A C45U | 0.03
A16U G21A U34A | 0.04
G17C G35A A39C | 0.03
A16U G29C G44A C45A | 0.06
A16U G27U G36C A41C | 0.02
G17C A39U A41U | 0.26
G17C A25U G44U | 0.01
G17A U32G U38C | 0.07
G17C C18A G33U | 0.01
G17U A24C A41C C42U | 0.01
G17C G19A G27C | 0.18
A16U U34A G36U | 0.04
G17A G27U G36A | 0.09
A16U G29U G36A C37U | 0.1
G17C G19A A41U | 0.41
G17C G36U C45A | 0.01
A16U U32G C45A | 0.08
G17C U20C C23U G33C | 0.01
A16U G22C U34G U38A | 0

Variant | self-cleavage
G17C G21U C31U G33C C37U | 0.03
G17C G29C G40U | 0.05
G17A A24U U28G G44A | 0.01
G17A G29C U43C | 0.06
G17C A26C C42A | 0.04
G17U A24C A41C | 0.04
A16U G29A G36A C37G | 0.02
G17A A26C G27U G44A | 0.18
G17C U20G C46A | 0.26
G17A C23A G40C C46G | 0.02
G17C A25C G33C | 0.02
A16U U20C C42G U43C | 0.03
G17C G27U U28G U43A | 0.02
G17U A24C G36A C37G C45A | 0.02
A16U G30U C31U | 0.02
G17A C31G G35C | 0.03
G17A U34C G36A | 0.07
G17C C23U A25U A26G | 0.1
G17A C18U C31G | 0.04
G17C A25U G27U G35C | 0.01
G17C C23A A24G G35C A39C G40C | 0.02

Variant | self-cleavage
A16U G22A G40U G44U C46A | 0.02
A16U G19U C42A | 0.09
G17A G22C A24G G27U | 0.01
A16U G22C U28C G29A C31A | 0.01
G17C C18A U32G | 0.03
G17C G29U C42A | 0.08
G17A U20A C23U G30U U32C | 0.08
A16U G22A A24C U34A | 0.02
G17C A24C U32G G36A | 0.01
G17A U20C C37U | 0.02
G17A G30A U38G | 0.02
G17A C18G G30A U34C | 0.06
G17A A26U G27A | 0.1
G17C C18U G19C | 0.36
G17C U28A C46U | 0.08
G17A C23A A24G | 0.01
G17C G21C G22U C37G C46G | 0.06
G17A A26U G33A | 0.18
G17C G29A C46A | 0.05
G17C G29A C46U | 0.06
G17A G19A G27C | 0.23
